# This is one part of the list. Shown are side measurements of this screen, not its main read-out; they come without a call. Most of these compounds were active or inconclusive in the main read-out, so they are no random draw.
# Assay: beta-lactam sensitization of Mtb H37Rv, H37Rv (AID 434955);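 further: growth measured after seven days incubation then overnight dye step; 0% = bacteria only wells and 100% = bacteria with antibiotic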
# Details: M. tuberculosis H37Rv growth with meropenem, percent inhibition; measured here: primary screen without meropenem; at 25 µM
row,Compound,inhibition [%]
1,O=C(Nc1ccc2c(c1)CCC2)C1CCN(c2c3c(nc4ncnn24)CCC3)CC1,-2.3
2,CC(=O)C1=C(O)C(=O)N(c2ccccn2)C1c1cccc(F)c1 (stereo not drawn),3.74
3,CCOc1ccc(NC(=O)CN(C)C(=O)CCc2ccccc2Cl)cc1OCC,-11.4
4,Cc1ccccc1OCC(=O)Nc1ccccc1N1CCOCC1,16.4
5,O=C(c1csc2c1CCCC2)n1cccn1,3.53
6,O=C(CN1CCOc2ccccc21)NCc1ccco1,-4.39
7,Cc1ccc(-c2nnn3c2nc(NCCc2ccc(S(N)(=O)=O)cc2)c2ccccc23)cc1,10.7
8,Cc1ccc(C(=O)N2CCN(c3ccccc3)CC2)cc1S(=O)(=O)N1CCOCC1,-0.64
9,CC1CCCCN1CCNC(=O)CCc1nnc2n(Cc3ccccc3)c(=O)c3ccccc3n12 (stereo not drawn),-12.4
10,CC(=O)N1CCN(c2ccccc2NC(=O)c2cccs2)CC1,2.97
11,CC(=O)c1ccc(NC(=S)Nc2ccc(N3CCOCC3)cc2)cc1,2.24
12,Cc1cccc(CSc2nnc(C)c(=O)n2N)c1,34.4
13,COc1ccc(-n2nnnc2/C=C\Nc2ccccc2C(=O)c2ccccc2)cc1,-1.36
14,Cc1ccc(C(=O)N2CCCC(CCC(=O)NCc3ccccc3F)C2)cn1 (stereo not drawn),3.06
15,CCOC(=O)N1CCN(Cc2ccccc2Cl)CC1,-0.21
16,O=C(CSc1nc2ccccc2c(=O)[nH]1)Nc1ccc(S(=O)(=O)N2CCCC2)cc1,-4.19
17,CN(C)CCCN(C(=O)c1ccco1)c1nc2cc3c(cc2s1)OCO3,-0.71
18,COc1ccc(C(=O)N2CCCC(CCC(=O)N3CCN(c4ccccn4)CC3)C2)cc1 (stereo not drawn),0.72
19,O=C1/C(=C\c2ccncc2)CCc2ccccc21,97.9
20,O=C(NNC(=O)c1ccc[nH]1)c1cc(Cl)cc(Cl)c1,-3
21,COc1ccc(CN(CCC#N)C(=S)NC(=O)c2ccccc2)cc1,35.1
22,COc1ccc(NS(=O)(=O)c2coc(C(N)=O)c2)cc1Cl,0.12

row,Compound,inhibition [%]
1,COC(=O)c1ccc(OCC2NCCc3cc(OC)c(OC)cc32)cc1 (stereo not drawn),3.13
2,CC1(C)Cc2ccccc2-c2nnc(-c3cccnc3)n21,-6.33
3,CN(Cc1nccs1)C(=O)c1ccc(OC2CCN(CCc3ccccc3)CC2)cc1,-1.19
4,COc1cc(OC)cc(-c2cc3ccc(OC)cc3cn2)c1,48.7
5,Cc1ccc(C(=O)N2CCOCC2)cc1S(=O)(=O)N1CCOCC1,3.69
6,Cc1ccc(NC(=O)/C=C\C(=O)O)c([N+](=O)[O-])c1,5.94
7,COc1ccc(N(C)C(=O)c2cc3c(s2)-c2ccccc2OC3)c(OC)c1,-2.89
8,CC(C)(C)c1nn(-c2ccccc2)c2[nH]c(=O)c(CNc3ccc4c(c3)OCCO4)cc12,52.8
9,Cc1nc2sc3c(c2c2nnc(SCC(=O)NCc4ccco4)n12)CCCC3,25
10,CCn1c(-c2ccc(-c3ccccc3)cc2)c[nH]c1=S,32.3
11,O=C(CSc1ccc2nnc(-c3ccccn3)n2n1)Nc1ccc(F)cc1F,3.57
12,CCc1nc(C(N)=O)c2[nH]c(=O)n(-c3ccc(OC)cc3OC)c2n1,-4.67
13,COc1ccc(C2/C(=C(\O)c3ccc4c(c3)CC(C)O4)C(=O)C(=O)N2Cc2cccnc2)c(OC)c1 (stereo not drawn),-3.11
14,COc1ccc(N(C)S(=O)(=O)c2c(C)[nH]c(=O)[nH]c2=O)cc1,1.3
15,Cc1c(OCC(=O)NCc2cccnc2)ccc2c3c(c(=O)oc12)CCC3,1
16,Cc1ccc(S(=O)(=O)N2CCOCC2)cc1C(=O)NC1CCCCCC1,-1.88
17,CC(C)=C1C2CCC1C(C(=O)NCc1ccccc1)C2C(=O)O (stereo not drawn),4.87
18,CCOc1ccc2[nH]c(=O)c(CN(Cc3ccccc3OC)C(=O)c3ccccc3)cc2c1,-2.14
19,O=C(NCCCN=C1NS(=O)(=O)c2ccccc21)c1ccncc1,-0.54
20,Fc1ccccc1OCCSc1nnnn1-c1ccccc1,2.68
21,Cc1cc(C(=O)NCC2CCCO2)n(-c2ccccc2)n1 (stereo not drawn),-2.35
22,CC(=NC1CCCC1)c1c(C)[nH]n(-c2nc3ccccc3s2)c1=O,-1.16

row,Compound,inhibition [%]
1,O=c1[nH]c(=S)n(C2CC2)c(O)c1C=Nc1cccc(C(F)(F)F)c1,-1.12
2,C/C(=N\OCC(=O)Nc1nc2ccccc2s1)c1ccccc1,43.2
3,CCOC(=O)c1sc(NC(=O)c2sc(C)nc2C)nc1C,-6.27
4,O=C(C[n+]1ccc(-c2ccccc2)cc1)Nc1ccc([N+](=O)[O-])cc1,-3.07
5,CCOc1ccccc1C(=O)Nc1cccc(-c2ccc3nncn3n2)c1,19
6,CC(C)(C)c1cc(NC(=O)COC(=O)c2nccnc2N)n(-c2ccccc2)n1,6.57
7,O=C(COc1ccccc1)Nc1nnc(-c2ccc(F)cc2)o1,4.46
8,O=C(Nc1cccc(C(=O)NC2CCCC2)c1)c1ccccc1,-1.79
9,O=C(NNS(=O)(=O)c1ccc(Cl)cc1)c1cnn(-c2ccccc2)c1-n1cccc1,-0.33
10,Cc1ccc(SCc2c(-c3ccccc3)nn(C)c2Cl)cc1,47.1
11,Cc1ccc(N(O)C(=O)NCCCCNC(=O)N(O)c2ccc(C)cc2)cc1,3.07
12,Cn1c(C(=O)Nc2ccc3c(c2)OCO3)cc2c(=O)n(C)c3ccccc3c21,-4.06
13,Cc1nn(-c2ccccc2)c(N2CCCC2)c1/C=C1\N=C(c2ccc(F)cc2)OC1=O,21.9
14,Cc1nc(S/C(=C\c2ccc(OCc3ccccc3Cl)cc2)C(=O)O)n[nH]1,20.4
15,O=C(c1cnn2c(C(F)(F)F)cc(-c3ccc(F)cc3)nc12)N1CCc2ccccc2C1,11.5
16,COc1ccc2c(c1OC)C(=O)N(c1ccc3c(c1)CCC3)C2=O,-3.24
17,CCc1cc(=O)[nH]c(SCCc2ccccc2)n1,-2.59
18,CCCCCCn1nc(C(=O)N(CC(C)C)c2c(N)n(CCCC)c(=O)[nH]c2=O)c2ccccc2c1=O,20.6
19,O=C(Nc1cccc(Cl)c1N1CCOCC1)c1ccc([N+](=O)[O-])o1,6.65
20,CCc1nn(CC(=O)NCCCN2CCN(C)CC2)c(=O)c2cc3sc(C)cc3n12,3.02
21,CCNc1oc(-c2ccccc2F)nc1S(=O)(=O)c1ccccc1,3.23
22,Cc1cc(N2CCC(C(=O)N3CCN(c4cccc(C)c4C)CC3)CC2)n2ncnc2n1,-0.67

row,Compound,inhibition [%]
1,O=C(Nc1cc(C(F)(F)F)ccc1N1CCOCC1)C1=NN(c2ccccc2)C(=O)CC1,-0.13
2,C=CCNCCCOc1ccc(Cl)cc1C(C)(C)C,31.5
3,Cc1cccc(CN2CCC(n3nccc3NC(=O)c3ccccc3C)CC2)n1,-3.3
4,Cn1c(=O)c2c(nc(SCCCC#N)n2Cc2ccccc2F)n(C)c1=O,-7.83
5,COc1ccc(OC)c(C2CC(c3c(-c4ccccc4)c4cc(Cl)ccc4[nH]c3=O)=NN2S(C)(=O)=O)c1 (stereo not drawn),44.4
6,CN1CCN(S(=O)(=O)c2ccc(Br)s2)CC1,-2.75
7,COc1ccc(CCNC(=O)c2cccc(NC3=NC4CS(=O)(=O)CC4S3)c2)c(OC)c1 (stereo not drawn),-7.32
8,COc1ccc(NC(=O)c2cc(C(C)C)on2)cc1OC,-1.96
9,O=C(c1ccoc1)N1CCCC(N2CCN(c3cccc(C(F)(F)F)c3)CC2)C1 (stereo not drawn),8.33
10,Cc1[nH]c2ccccc2c1Cc1nnc(SCC(N)=O)o1,-7.55
11,CCOC(=O)c1c(C)n(-c2ccccc2)c2ccc(OCCN(C)C)cc12,35.8
12,CC1(C(=O)N/N=C/c2cc3c(cc2Br)OCO3)CC1(Br)Br (stereo not drawn),7.12
13,CCOC(=O)Cc1csc(NC(=O)c2csc3c2CCCC3)n1,1.38
14,Cc1cccc(/C=N/NC(=O)c2cc(C3CC3)nc3ccccc23)n1,5.21
15,COc1ccc(CN2CCNC(=O)C2CC(=O)NCC2CCOCC2)c(C)c1C (stereo not drawn),-11.2
16,COc1ccc(C(C)=O)cc1CSc1nc2ccccc2c(=O)n1-c1cccc(C)c1,-2.49
17,Cc1ncc(CCl)c2c1OC(C)(C)OC2,43.1
18,COCCOC(=O)C1=C(N)Oc2c(oc(CO)cc2=O)C1c1c(F)cccc1Cl (stereo not drawn),-8.34
19,CCCCOc1ccc(C(=O)Oc2cccnc2)cc1,50
20,O=C(Nc1cc2c(cc1Br)OCCCO2)c1cccnc1,-0.32
21,Cc1c(C(=O)NCCC2=CCCCC2)sc2ncnc(N3CCCCC3C)c12 (stereo not drawn),30.9
22,Cc1cc(C)c2nc(-c3ccncc3)cc(C(=O)N3CCN(Cc4ccccc4Cl)CC3)c2c1,96.3

row,Compound,inhibition [%]
1,O=C1CCCc2sc3c(c2N1)CCCCC3,9.94
2,O=C(NCCCn1ccnc1)Nc1ccc(Cl)cc1,0.26
3,CCCC(=O)Nc1c(C)n[nH]c1C,-7.11
4,CC1Cc2ccccc2N1C(=O)COC(=O)Cn1cnc2ccccc2c1=O (stereo not drawn),4.7
5,COc1cccc(-n2c(=O)c3sccc3n(CC(=O)NCC3CCCO3)c2=O)c1 (stereo not drawn),-1.2
6,CCc1ccc(CNC(=O)c2ccc(OC)c(OC3CCN(C(C)C)CC3)c2)nc1,1.96
7,CC(/C=C/c1ccco1)=N\NC(=O)c1cc(C)[nH]n1,-10.3
8,O=C(Nc1ccc(F)cc1)c1cccc(N2C(=O)C3C4C=CC(C5CC45)C3C2=O)c1 (stereo not drawn),-11.6
9,O=C(CCC(=O)Nc1ccccc1)NNC(=O)c1ccco1,24.8
10,C/C(=N\O)c1c(C)c2ccccc2n1C,-8.32
11,Cc1ccc(CNC(=O)CCc2nnc3ccc(NCCCN4CCCC4=O)nn23)cc1,-1.3
12,O=C(NN1C(=O)C2C3C=CC(C3)C2C1=O)c1ccncc1 (stereo not drawn),14.3
13,Cc1cc(NC(=O)CN2CCN(c3ccccc3O)CC2)no1,-5.52
14,Cn1c(=O)oc2cc(S(=O)(=O)Nc3ccc(F)cc3)ccc21,-2.73
15,CCCCNc1nc2ccccc2nc1NS(=O)(=O)c1ccc(F)cc1,-4.75
16,Cc1cccc(C)c1NC(=O)CS(=O)CC(=O)NC1CCN(Cc2ccccc2)CC1 (stereo not drawn),-3.98
17,Nc1nc(NCC(=O)O)nc(N2CCCCCC2)c1[N+](=O)[O-],4.12
18,CC(C)(C)[C@@H]1C=C(C(=O)Nc2ccccc2)O[C@H](OCc2ccc(CO)cc2)C1,13.1
19,CSc1nc(NS(=O)(=O)c2cc(C)c(Cl)cc2Cl)nn1C,-6.12
20,COc1ccc(CCN2CC(C(=O)NCc3cnn(C(C)C)c3)CCC2=O)cc1 (stereo not drawn),0.14

# Source: PubChem BioAssay AID434955 (Southern Research Specialized Biocontainment Screening …, 2010)
